# In PubChem BioAssay AID686978 (National Center for Advancing Translational Sciences (NCATS), 2013):
# About 64,000 (15%) of roughly 420,000 compounds were called active. Inconclusive results, whose numbers are uncertain, are shown with a selection of clear calls. Calls come from the whole dose curve; as a rule, active = well fitted inhibition curve with a large enough effect; inconclusive = small, poorly fitted or top-dose-only effect; inactive = flat fitted curve, though single readings scatter. Potencies of inconclusive entries are left out as doubtful fits.
# Assay: qHTS for Inhibitors of human tyrosyl-DNA phosphodiesterase 1 (TDP1): qHTS in cells in absence of CPT; note: nearly all actives have a fitted effect of over 55% in size
# Settings: DT40 Tdp1-/- hTDP1 cells, no CPT, ATP luminescence, 48 h; series mostly up to 46.2 µM
# In short: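 Chicken DT40 Tdp1-/- cells complemented with human TDP1, screened without camptothecin (DMSO vehicle only), 400 cells/well. Compounds pin-transferred, cells incubated at 37 °C for at least 48 hr. Growth read as ATP-dependent luminescence (CellTiter-Glo, 30 min at RT).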
# Potency is the fitted concentration of half-maximal effect; tags give direction and shape of the fitted curve.
row,Structure (SMILES),Potency
1,O=C(C1CC1)N1CCc2cc(S(=O)(=O)N3CCN(c4ccccc4)CC3)ccc21,inactive
2,COc1ccc(CN(C)C(=O)COC(=O)c2cnc(Cl)c(Cl)c2)cc1,inactive
3,COc1cc(/C=N/NS(=O)(=O)c2ccc(C(C)(C)C)cc2)cc([N+](=O)[O-])c1O,inactive
4,CCOc1ccc(-n2c(=O)c3c(C)c(C)sc3n(CC(=O)N(CC)Cc3ccccc3)c2=O)cc1,active: 11.6 µM
5,COC(=O)C1CCN(S(=O)(=O)c2ccc(NC(C)=O)cc2)CC1,inactive
6,CC(NC(=S)NC(=O)c1cccs1)c1ccccc1 (configuration not stated),active: 18.4 µM
7,CC1(C)OC2CC3C4CC(F)C5=CC(=O)C=CC5(C)C4(F)C(O)CC3(C)C2(C(=O)CO)O1 (configuration not stated),inactive
8,Cc1cc(=O)oc(C)c1C(=O)Nc1cccc2ccccc12,inactive
9,Cc1cnc(SCCN2CCOCC2)nc1C1CCCN(C(=O)c2cccc3c(C)c(C)[nH]c23)C1 (configuration not stated),active: 16.4 µM
10,O=C(C[n+]1cccc(NC(=O)c2ccccc2)c1)c1cccc([N+](=O)[O-])c1,"inconclusive [inhibitor, single point]"
11,CC(C)(C)NC(=S)NNC(=O)[C@H]1C[C@@H]1c1ccccc1,"inconclusive [inhibitor, single point]"
12,Cc1cn2c(=O)cc(COc3ccc(Cl)cc3)nc2s1,inactive
13,COc1cc(NC(=O)Nc2cccc(-c3noc(C)n3)c2)cc(OC)c1OC,active: 23.1 µM
14,O=c1cc(C(F)(F)F)[nH]c(=S)n1-c1ccccc1,inactive
15,CCOc1ccccc1CN1CCN(Cc2ccon2)CC1CCO (configuration not stated),inactive
16,COc1ccc2c(c1)CC(C(=O)Nc1cc(Cl)ccc1C)CO2 (configuration not stated),"inconclusive [inhibitor, single point]"
17,Cc1ccc(NCc2nnc(SCC(=O)N3c4ccccc4Sc4ccccc43)o2)c(C)c1,"inconclusive [inhibitor, partial curve, poor fit]"
18,CCCNC(=S)N1CCC(Cc2ccccc2)CC1,"inconclusive [inhibitor, single point]"
19,CCOc1ccccc1NC1c2ccccc2C(=O)N1Cc1ccco1 (configuration not stated),"inconclusive [inhibitor, single point]"
20,CCc1ccc(CNC(=O)C2Cc3cc(S(=O)(=O)N4CCCCCC4)ccc3N2C(C)=O)cc1 (configuration not stated),"inconclusive [inhibitor, single point]"
21,Cn1cnnc1Sc1nc([N+](=O)[O-])nn1C,inactive
22,COc1ccccc1Nc1nnc(SCC(=O)c2cc(C)n(CC3CCCO3)c2C)s1 (configuration not stated),"inconclusive [inhibitor, single point]"
23,C[C@]12C=CC(=O)C=C1CC[C@@H]1[C@@H]2[C@@H](O)C[C@@]2(C)[C@H]1CC[C@]2(O)C(=O)COC(=O)CCC(=O)O,inactive
24,CCOc1ccc(CNC(=O)CCCn2nc(CC)n3c(cc4occc43)c2=O)cc1,"inconclusive [inhibitor, single point]"

row,Structure (SMILES),Potency
1,COCC1CCCN(Cc2cn(-c3ccccc3)nc2-c2ccc3c(c2)OCO3)C1 (configuration not stated),inactive
2,CCOc1ccc(CNc2nc3nc(C)c(Cc4ccccc4)c(=O)n3[nH]2)cc1,inactive
3,COc1ccc(/C=N/NC(=O)C2CCN(c3ncc(C(F)(F)F)cc3Cl)CC2)cc1,"inconclusive [inhibitor, partial curve]"
4,Cc1cc(C(=O)c2ccc3ccccc3c2)c(C)o1,"inconclusive [inhibitor, single point]"
5,O=c1[nH]c2ccccc2nc1/C=C(\O)c1cccs1,"inconclusive [inhibitor, single point]"
6,Cc1cc2ncn(-c3ncnc4sc5c(c34)CCC(C)C5)c2cc1C (configuration not stated),"inconclusive [inhibitor, partial curve]"
7,COc1ccc(CCN2CC(C(=O)N3CCC(OC)CC3)CCC2=O)cc1 (configuration not stated),inactive
8,CCc1nc2ccc(C(=O)Nc3ccc(NC(C)=O)cc3)cn2c1N(C)CCCc1ccccc1,"inconclusive [inhibitor, single point]"
9,Cc1ccccc1[C@H](NC1c2ccccc2C=Cc2ccccc21)P(=O)(c1ccccc1)c1ccccc1,"inconclusive [inhibitor, single point]"
10,Cc1ccc(C2CN(C)C3(C(=O)Nc4ccccc43)C23COc2ccccc2C3=O)cc1 (configuration not stated),"inconclusive [inhibitor, single point]"
11,Cc1ccc(C)c(C(=O)COc2ncnc3ccccc23)c1,"inconclusive [inhibitor, partial curve]"
12,Cc1nnc(N/N=C/c2ccc(O)c([N+](=O)[O-])c2)[nH]c1=O,inactive
13,COC(=O)[C@@H]1[C@H]2C[C@H]3c4[nH]c5ccccc5c4CCN3C[C@@H]2CC[C@@H]1O,"inconclusive [inhibitor, partial curve, poor fit]"
14,CN1CCN(c2ccccc2NC(=O)c2ccc(-c3ccccc3[N+](=O)[O-])o2)CC1,active: 16.4 µM
15,Cc1n[nH]c(C)c1CCCCOc1ccccc1[N+](=O)[O-],"inconclusive [inhibitor, partial curve, poor fit]"
16,CN(c1ccc(C(=O)Nc2cccnc2)cc1)S(=O)(=O)c1ccc(Cl)cc1,"inconclusive [inhibitor, full curve, poor fit]"
17,Cc1cnc(C(=O)OCC(=O)N2CC(C)CC(C)C2)cn1 (configuration not stated),inactive
18,COc1ccc(OC)c(S(=O)(=O)Nc2ccc(-c3ccc4nncn4n3)cc2)c1,active: 2.06 µM
19,CCOC(=O)c1ccc(NC(=O)Nc2nc3ccccc3s2)cc1,"inconclusive [inhibitor, partial curve, poor fit]"
20,CCN(CC)C(=O)CCSc1nnc(-c2ccncc2)o1,inactive
21,CCOC(=O)CN1NC2(CCCC(C)C2)NC1=S (configuration not stated),inactive
22,CC(=O)N1CCN(C(=O)c2cccc(S(=O)(=O)N3c4ccccc4CC3C)c2)CC1 (configuration not stated),inactive
23,O=C(CSc1ncccc1-c1nc2ccccc2[nH]1)N1CCN(c2ccccc2F)CC1,"inconclusive [inhibitor, single point]"
